Each structure is given as a SMILES string. ± gives the uncertainty stated by the source. The full ranking holds about 9,900 compounds; the median of “viability index relative to DMSO control” is about 1, and the lowest 2% start at about 0.85. The list shows a part of the results.

From the supplement of paper PMC4723716 come the findings set out here.

The test system of the test is Plasmodium falciparum NF54 stage V gametocytes. Kind of test: viability index relative to DMSO control (fraction); higher = less gametocyte killing. The note with it: 2.5 µM, library set: Broad Institute DOS, incubation time: 72 h. In a few lines: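 In 1,536-well plates, 10 µl of serum-free medium holding P. falciparum NF54 stage V gametocytes (0.75% gametocytemia, 1.25% hematocrit) received compound at 2.5 µM for 72 hr at 37°C in low oxygen. After one to two hours with 3 µl of 2.5 µM MitoTracker Red CMXRos containing 0.13% saponin, red particles of 20–70 µm2 were counted in a single field per well. Viability index is reported as the particle count over the plate mean of wells treated with solvent only.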
Take `COc1ccc(S(=O)(=O)N(C)C[C@@H]2OCCCC[C@@H](C)Oc3ccc(NC(=O)Cc4ccccc4)cc3C(=O)N([C@@H](C)CO)C[C@@H]2C)cc1`: the viability index was determined as 1.01 ± 0.16.

In turn, `C/C=C/c1ccc([C@H]2[C@H](CO)N(C(C)=O)[C@H]2CN(CC)C(=O)CN(C)C)cc1` displayed a viability index of 1.102 ± 0.0012.

`COC(=O)C[C@@H]1CC[C@@H]2[C@@H](COc3ccc(NC(=O)Nc4c(C)noc4C)cc3C(=O)N2C)O1` had a viability index of 0.921 ± 0.1.

The compound `CO[C@H]1CC[C@H]2CCOc3c(C#N)cccc3C(=O)N(C)C[C@@H](c3ccccc3)CC(=O)N(C)C[C@@H]1O2` returned a viability index of 1.02 ± 0.11.

In turn, `Cc1ccc(S(=O)(=O)N2C[C@@H](O)COC[C@@H]3O[C@@H](CC(=O)NCc4ccc5c(c4)OCO5)CC[C@H]32)cc1` gave a viability index of 1.08 ± 0.07.

Compound `C[C@H]1CN([C@@H](C)CO)S(=O)(=O)c2ccc(C#Cc3cccc(F)c3)cc2O[C@H]1CN(C)S(=O)(=O)c1cn(C)cn1` came in with a viability index of 1.04 ± 0.054.

Compound `CN1C(=O)c2cc(NC(=O)Nc3ccccc3Cl)ccc2OC[C@H]2O[C@@H](CC(=O)O)CC[C@H]21` had a viability index of 0.985 ± 0.12.

The compound `CCS(=O)(=O)Nc1ccc2c(c1)C(=O)N(C)[C@H]1CC[C@H](CC(=O)N[C@H]3CCN(Cc4ccccc4)C3)O[C@H]1CO2` gave a viability index of 1.09 ± 0.17.

`COc1ccc(C(=O)N2C[C@H]3[C@@H](c4ccccc42)[C@H](CO)N3Cc2ccccc2Cl)cc1` had a viability index of 1.02 ± 0.0079.

In the case of `C[C@@H]1CCCCO[C@@H](CN(C)C(=O)CCC(F)(F)F)[C@H](C)CN([C@H](C)CO)C(=O)c2cc(NC(=O)C3CCCCC3)ccc2O1`, the viability index was determined as 1.09 ± 0.032.

`O=C(C[C@H]1C[C@H]2c3cc(NS(=O)(=O)c4ccccc4)ccc3O[C@H]2[C@H](CO)O1)NCC(F)(F)F`: the viability index turned out to be 1.15 ± 0.062.

With `COc1cccc(-c2ccc([C@H]3[C@@H](CO)N(C(=O)Cc4ccncc4)[C@H]3C#N)cc2)c1`, the viability index was 1.02 ± 0.044.

The compound `Cc1noc(C)c1NC(=O)Nc1cccc2c1O[C@H](CN(C)Cc1ccc(C(=O)Nc3ccccc3N)cc1)[C@@H](C)CN([C@H](C)CO)C2=O` gave a viability index of 0.961 ± 0.023.

As to `O=C(C[C@H]1C=C[C@@H](NC(=O)c2ccncc2)[C@@H](CO)O1)NCC1CC1`, the viability index was determined as 1.08 ± 0.03.

In turn, `O=C(C[C@H]1CC[C@@H]2[C@H](COC[C@@H](O)CN2Cc2nccs2)O1)NCc1ccccc1Cl` gave a viability index of 1 ± 0.026.

For the compound `COc1ccccc1C(=O)N1C[C@H]2[C@@H](c3ccccc31)[C@@H](CO)N2C(=O)Cc1ccccc1`, the viability index came to 1.07 ± 0.015.

In the case of `CC(C)COC(=O)N(C)C[C@@H]1OCc2ccccc2-c2ccccc2C(=O)N([C@H](C)CO)C[C@@H]1C`, the viability index worked out at 0.982 ± 0.061.

In the case of `C[C@@H](NC(=O)C[C@@H]1CC[C@H]2[C@@H](COC[C@H](O)CN2C(=O)Nc2cccc(Cl)c2)O1)c1ccccc1`, the viability index amounted to 1.06 ± 0.028.

`C/C=C/c1ccc2n(c1=O)C[C@H]1[C@H](CO)[C@@H](C(=O)N(C)C)N(C(=O)CC)[C@@H]21.C/C=C\c1ccc2n(c1=O)C[C@H]1[C@H](CO)[C@@H](C(=O)N(C)C)N(C(=O)CC)[C@@H]21`: the viability index came out at 1.059 ± 0.005.

As to `CN(C)C(=O)c1cccc(-c2ccc([C@H]3[C@@H]4CN(C(=O)CN5CCOCC5)C[C@H]3N4)cc2)c1`, the viability index is 1.08 ± 0.014.

For `OC[C@@H]1[C@H](c2ccc(Br)cc2)[C@H]2CNCCCCN12`, the viability index is 1.05 ± 0.041.

Take `COCCN(C[C@H]1N[C@H](CO)[C@@H]1c1ccc(-c2cccc(C#N)c2)cc1)C(C)=O`: the viability index was 1.06 ± 0.031.

`CCN(C[C@@H]1[C@H](c2ccccc2)[C@@H](CO)N1CC1CC1)C(=O)c1ccccn1` returned a viability index of 1.05 ± 0.019.

On to `O=C(NC1CCCC1)[C@H]1[C@H](CO)[C@H]2Cn3c(cccc3=O)[C@H]2N1CCc1ccccc1`, for which the viability index came out at 1.013 ± 0.0097.

As for `CO[C@@H]1CN(C)C(=O)c2cc(NS(=O)(=O)CC(F)(F)F)ccc2OC[C@H](C)NC[C@H]1C`, the viability index was 1.05 ± 0.029.

`Cc1noc(C)c1C(=O)N(C)C[C@H]1OCc2ccccc2-c2ccccc2C(=O)N([C@@H](C)CO)C[C@H]1C` registered a viability index of 0.977 ± 0.15.

Take `CN1CCN(C(=O)C[C@@H]2CC[C@H]3[C@@H](COC[C@@H](O)CN3C(=O)Nc3ccc4c(c3)OCO4)O2)CC1`: the viability index worked out at 0.9371 ± 0.00097.

`COc1ccc(C(=O)N2C[C@H]3[C@@H](c4ccccc42)[C@H](CO)N3C(=O)Cc2ccccn2)cc1` had a viability index of 0.999 ± 0.18.

Compound `C[C@@H]1CN([C@@H](C)CO)C(=O)c2cc(NC(=O)C3CCCCC3)ccc2O[C@@H]1CN(C)C(=O)Nc1ccc(C(F)(F)F)cc1` gave a viability index of 0.967 ± 0.036.

`CN(C)C(=O)c1ccc(-c2ccccc2[C@H]2[C@@H](C#N)N(C(=O)C3CC3)[C@@H]2CO)cc1` showed a viability index of 1.13 ± 0.059.

`Cc1noc(C)c1S(=O)(=O)Nc1ccc2c(c1)C(=O)N([C@@H](C)CO)C[C@H](C)[C@@H](CN(C)Cc1ccc(C(=O)O)cc1)OCCCC[C@H](C)O2` returned a viability index of 1.01 ± 0.16.

As for `COc1ccc(NC(=O)N(C)C[C@@H]2OCCCC[C@H](C)Oc3ccc(NC(=O)c4ccncc4)cc3C(=O)N([C@@H](C)CO)C[C@H]2C)cc1`, the viability index is 1.12 ± 0.052.

Compound `Cn1cnc(CCNC(=O)C[C@H]2CC[C@@H]3[C@H](COC[C@@H](O)CN3C(=O)Nc3ccc(C(F)(F)F)cc3)O2)c1` returned a viability index of 1.04 ± 0.043.

Take `C[C@@H](NC(=O)C[C@@H]1C=C[C@H](NS(=O)(=O)c2cccc(F)c2)[C@H](CO)O1)c1ccccc1`: the viability index is 1.16 ± 0.083.

The compound `O=C(C[C@H]1CC[C@@H]2[C@H](COC[C@@H](O)CN2CCC(F)(F)F)O1)NCc1ccc2c(c1)OCO2` came in with a viability index of 0.951 ± 0.064.

In the case of `C[C@@H]1CN([C@@H](C)CO)C(=O)c2cc(NC(=O)Cn3cnnn3)ccc2O[C@@H]1CN(C)C(=O)Nc1ccc2c(c1)OCO2`, the viability index came out at 1.02 ± 0.15.

`CN1CCN(C(=O)C[C@@H]2CC[C@H]3[C@@H](COC[C@@H](O)CN3C(=O)c3ccccc3F)O2)CC1` came in with a viability index of 1.06 ± 0.046.

With `COc1ccccc1-c1ccc2c(c1)O[C@H](CN(C)CC1CCOCC1)[C@@H](C)CN([C@@H](C)CO)S2(=O)=O`, the viability index was determined as 1.01 ± 0.079.

The compound `O=C(NCC1CC1)[C@@H]1[C@@H](CO)[C@@H]2Cn3c(ccc(C4=CCCC4)c3=O)[C@@H]2N1C(=O)C1CC1` yielded a viability index of 1.05 ± 0.063.

On to `CO[C@@H]1CN(C)C(=O)c2cc(NC(=O)CC(F)(F)F)ccc2OC[C@H](C)N(CC2CC2)C[C@H]1C`, for which the viability index was 1.11 ± 0.014.

On to `CC(C)NC(=O)N1CC[C@@H]2[C@H]1c1cc(C#Cc3ccccc3)ccc1N(C)[C@@H]2CO`, for which the viability index was found to be 1.11 ± 0.056.

Consider `C[C@H]1CN([C@@H](C)CO)C(=O)c2cc(NC(=O)Cn3cnnn3)ccc2O[C@H]1CN(C)C(=O)Nc1ccc2c(c1)OCO2`, for which the viability index is 1.035 ± 0.0075.

Turning to `C[C@H](CO)N1C[C@H](C)[C@H](CN(C)S(=O)(=O)c2ccc(F)cc2)OCCCC[C@H](C)Oc2ccc(NC(=O)CCCCCC(=O)Nc3ccccc3N)cc2C1=O`, the viability index is 0.982 ± 0.12.

`COC(=O)c1ccc(CN2CC(=O)N3[C@@H](CO)[C@H](c4ccc(-c5cccnc5)cc4)[C@@H]3C2)cc1` yielded a viability index of 1 ± 0.012.

For the compound `O=C(C[C@@H]1CC[C@H](NC(=O)c2ccc3c(c2)OCO3)[C@H](CO)O1)NCc1ccc(Oc2ccccc2)cc1`, the viability index was 1.08 ± 0.19.

In turn, `COc1cccc(-c2ccccc2[C@@H]2[C@H](C#N)N(C(=O)c3ccccn3)[C@H]2CO)c1` registered a viability index of 1.1 ± 0.072.

`N#Cc1ccc(-c2ccc([C@@H]3[C@@H]4CN(S(=O)(=O)c5ccc(F)cc5)C[C@H]3N4)cc2)cc1` displayed a viability index of 1.02 ± 0.061.

For `C[C@H](CO)N1C[C@H](C)[C@H](CN(C)CC2CCCCC2)OCCCC[C@H](C)Oc2ccc(NS(C)(=O)=O)cc2C1=O`, the viability index was found to be 1.05 ± 0.086.

As for `CCN(C[C@H]1[C@H](c2ccccc2)[C@H](CO)N1C(=O)COC)S(C)(=O)=O`, the viability index was 1.03 ± 0.04.

For the compound `C[C@@H]1CN([C@H](C)CO)C(=O)c2c(c3ccccc3n2C)-c2ccccc2CO[C@H]1CN(C)C`, the viability index came to 1 ± 0.023.

In turn, `C[C@@H]1CN([C@H](C)CO)C(=O)CCCn2nncc2CO[C@@H]1CN(C)Cc1ccccc1C(=O)O` had a viability index of 1.08 ± 0.055.

`CCS(=O)(=O)N1[C@H](C#N)[C@H](c2ccc(-c3cccc(F)c3)cc2)[C@@H]1CO`: the viability index came to 0.946 ± 0.011.

In turn, `O=C(C[C@@H]1C=C[C@H](NC(=O)C2CCOCC2)[C@@H](CO)O1)NCCc1cscn1` had a viability index of 1.11 ± 0.096.

`C[C@H](CO)N1C[C@H](C)[C@@H](CN(C)Cc2ccc3c(c2)OCO3)Oc2c(NC(=O)c3ccncc3)cccc2C1=O` yielded a viability index of 1.09 ± 0.06.

In turn, `O=C(C[C@H]1C[C@H]2c3cc(NC(=O)C4CCC4)ccc3O[C@H]2[C@@H](CO)O1)NC1CCCC1` registered a viability index of 1.002 ± 0.0073.

Take `N#C[C@@H]1[C@H](c2ccccc2-c2cccc(F)c2)[C@@H](CO)N1C(=O)c1cccnc1`: the viability index worked out at 1.09 ± 0.063.

`CCC(=O)N1CC[C@H]2[C@@H]1c1cc(C#Cc3ccccc3OC)ccc1N(C)[C@H]2CO` had a viability index of 1.06 ± 0.034.

As for `COc1ccc(CNC(=O)C[C@@H]2CC[C@H](NC(=O)CN(C)C)[C@H](CO)O2)cc1`, the viability index was determined as 0.971 ± 0.062.

`CCCNC(=O)N1C[C@@H]2[C@H](c3ccccc31)[C@H](CO)N2Cc1cccc(OC)c1` displayed a viability index of 0.995 ± 0.041.

As to `COCC(=O)Nc1ccc2c(c1)[C@@H]1C[C@@H](CC(=O)N[C@H](C)c3ccccc3)O[C@H](CO)[C@@H]1O2`, the viability index amounted to 1.02 ± 0.026.

`CO[C@@H]1CN(C)C(=O)c2cc(NC(=O)C3CCCCC3)ccc2OC[C@@H](C)N(Cc2cccnc2)C[C@H]1C` registered a viability index of 1.132 ± 0.0091.

Regarding `O=C(CC1CC1)N1[C@@H](CO)[C@@H](c2ccccc2)C12CN(Cc1ccccc1)C2`, the viability index worked out at 1.06 ± 0.063.

`C[C@H](CO)N1C[C@H](C)[C@H](CN(C)S(C)(=O)=O)Oc2c(NC(=O)Nc3ccc4c(c3)OCO4)cccc2C1=O` yielded a viability index of 1.03 ± 0.11.

`N#C[C@H]1[C@@H](c2ccccc2)[C@@H](CO)N1C(=O)c1ccc2c(c1)OCO2`: the viability index was 1.08 ± 0.022.

As to `COc1cccc(NC(=O)N[C@H]2CC[C@H](CC(=O)N3CCN(C)CC3)O[C@H]2CO)c1`, the viability index was found to be 1.136 ± 0.0081.

Take `CNC[C@@H]1Oc2ccc(N)cc2CC(=O)N([C@H](C)CO)C[C@H]1C`: the viability index is 0.954 ± 0.011.

In turn, `CCC(=O)N1[C@@H](CO)[C@@H](c2ccccc2)[C@@H]1CN(CC)C(=O)c1cccc(F)c1` gave a viability index of 1.04 ± 0.018.

`COc1cccc(NC(=O)N2CC3(C2)[C@@H](c2ccccc2)[C@H](CO)N3C(C)=O)c1` returned a viability index of 1.07 ± 0.028.

As for `O=C(C[C@@H]1CC[C@H]2NC[C@H](O)COC[C@@H]2O1)NC1Cc2ccccc2C1`, the viability index stood at 1.03 ± 0.019.
